Drawing on patent US20240415975A1 (ABTIS, published 2024), this text covers Kd for 1 substance.

Test [1] has as its target Claudin 18.2 protein (CLDN18.2), expressed on cells (UniProt P56856). Nature of the test: cell-based ELISA on MIA PaCa-2-CLDN18.2 cells; regression in GraphPad Prism (column labelled Kd, text says EC50).
Test [2] has the same target. Nature of the test: cell-based ELISA on SNU601 cells (CLDN18.2+); regression in GraphPad Prism (column labelled Kd, text says EC50). A general note: In an ELISA, binding on a coated surface is turned into a signal by an enzyme label.

Certain results were filed several times, with different values. The other results are left out here. There may be further records. Values that stand side by side read as repeated measurements on other runs, samples or individuals.

A word on the Kd: it is the free concentration of one partner at which half of the binding sites on the other are occupied at equilibrium, for simple one-to-one binding. High values mean a looser complex, low ones a tighter complex. Turning to Zolbetuximab (antibody-B), the Kd in test [1] is 0.045 µg/mL and 0.3 nM [lines of one column]; in test [2], 0.032 µg/mL and 0.213 nM [lines of one column].
